# From PubChem BioAssay AID686979 (National Center for Advancing Translational Sciences (NCATS), 2013)
# Out of some 420,000 compounds screened, about 50,000 (12%) were called active. Inconclusive results, whose numbers are uncertain, are shown with a selection of clear calls. Calls come from the whole dose curve; as a rule, active = well fitted inhibition curve with a large enough effect; inconclusive = small, poorly fitted or top-dose-only effect; inactive = flat fitted curve, though single readings scatter. No potency is given beside an inconclusive call; the fits are too rough.
# Assay: qHTS for Inhibitors of human tyrosyl-DNA phosphodiesterase 1 (TDP1): qHTS in cells in presence of CPT; note: nearly all actives have a fitted effect of over 55% in size
# Details: chicken DT40 Tdp1-/-;hTDP1 cells + 20 nM CPT, ATP luminescence, 48 h; activity change, negative = growth inhibition: at 46.2 µM (top of the series) unless noted
# Procedure, shortened: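 Chicken DT40 Tdp1-/- cells stably complemented with human TDP1 were seeded at 400 cells/well in medium containing 20 nM camptothecin, exposed to pin-transferred compounds, and grown at 37 °C for at least 48 hr. Viability was read as ATP luminescence.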
# % is set by controls: 0 for no effect and ±100 for the full control effect; potency is the fitted concentration of half-maximal effect; tags give direction and shape of the fitted curve.
SMILES,Potency,"activity change, negative = growth inhibition"
O=C(COc1ccc([N+](=O)[O-])cc1)NCc1ccccc1,"inconclusive [inhibitor, single point]",–
COc1ccc(CCNC(=O)c2cc3c(s2)-c2c(C)cccc2OC3)c(OC)c1,"inconclusive [inhibitor, single point]",–
Cc1cc(C)cc(NC(=O)Cn2nnc(C(=O)NCc3ccccc3Cl)c2N)c1,"inconclusive [inhibitor, single point]",–
Cn1c(=O)n(C)c2cc(CNc3ccc(N4CCOCC4)c(C(=O)O)c3)ccc21,"inconclusive [inhibitor, partial curve, poor fit]",–
CCN(CC)CCNC(=O)c1ccc(Sc2ccc(Cl)cc2)c(NC(C)=O)c1,"inconclusive [inhibitor, single point]",–
CC(C)C(NC(=O)C1CCCCC1)C(=O)N1CCN(c2ccc(F)cc2)CC1 (centres undefined),active: 13 µM,–
CN(C)CCCNc1oc(/C=C/c2cccs2)nc1S(=O)(=O)c1ccccc1,"inconclusive [inhibitor, single point]",–
CC(C)c1cc(C(=O)NC(C)c2ccccc2)no1 (centres undefined),inactive,–
COc1cc2oc(=O)cc(-c3ccc(-c4ccc(C#N)cc4)cc3)c2c(OC)c1OC,active: 7.31 µM,–
CCc1ccc(S(=O)(=O)c2nnn3c2nc(Nc2cc(OC)cc(OC)c2)c2cc(Cl)ccc23)cc1,"inconclusive [inhibitor, single point]",–
COC(=O)/C(NC(C)=O)=C(\C)c1ccc(Cl)cc1,"inconclusive [inhibitor, partial curve, poor fit]",–
CC(C)c1ccc(N2CCN(C(=O)c3ccccc3NC(=O)/C=C\C(=O)O)CC2)cc1,"inconclusive [inhibitor, single point]",–
O=C(NCc1cccnc1)c1ccc(CS(=O)(=O)c2ccc(Br)cc2)o1,"inconclusive [inhibitor, partial curve]",–
COc1ccc2nc(NC(=O)CSC(C)C(=O)Nc3cc(C)on3)sc2c1 (centres undefined),inactive,–
C/C(=N/NS(=O)(=O)c1ccc(C)cc1C)c1c[nH]c2ccccc12,"inconclusive [inhibitor, single point]",–
Cc1cccc2c1-c1sc(C(=O)NCc3ccc(Cl)cc3)cc1CO2,inactive,–
COc1cccc2nc3c(C(=O)NCCN(C)C)cccc3cc12,active: 0.164 µM,–
CCOC(=O)c1c(-c2ccc(OC)cc2)csc1NC(=O)CNCc1ccco1,"inconclusive [inhibitor, single point]",–
CC(=O)NC(=S)Nc1cccc([N+](=O)[O-])c1,inactive,–
C=CCC1(CC=C)CCCN1C(=O)C1CCC(=O)N(CCc2ccc(Cl)cc2)C1 (centres undefined),active: 18.4 µM,–
Cc1cccc(N2CC(c3nc4ccccc4n3CCC3CCCCC3)CC2=O)c1 (centres undefined),"inconclusive [inhibitor, single point]",–
COc1ccc(C2/C=C\CC(NS(=O)(=O)c3ccc(C)cc3)CC(=O)N2Cc2ccccc2F)cc1 (centres undefined),active: 23.1 µM,–
CCCCCCN(CCCCCC)c1ccc(/C=C/c2ccnc3ccccc23)cc1,"inconclusive [inhibitor, single point]",–

SMILES,Potency,"activity change, negative = growth inhibition"
COc1ccc(S(=O)(=O)n2cnc3ccccc32)cc1OC,inactive,–
CC(=O)OC1CC(C)(C)N(OC(=O)c2ccccc2)C(C)(C)C1,"inconclusive [inhibitor, partial curve, poor fit]",–
CCOC(=O)N1CCN(C(=O)Nc2sc3nc4n(c(=O)c3c2C)CCC(C)CC4)CC1 (centres undefined),"inconclusive [inhibitor, single point]",–
COc1ccc(-c2cnc3c(NC=O)cc(-c4ccc(F)cc4)cn23)cc1OC,active: 0.0058 µM,–
C=CCN1C(=O)c2cccc3c(Br)ccc(c23)C1=O,inactive,–
Cc1cc(NC(=O)OC(C)(C)C)c(-n2nnnc2C(C(=O)c2ccc3c(c2)OCO3)N2CCN(c3ccccn3)CC2)cc1C (centres undefined),active: 23.1 µM,–
COc1cc(OC)c2c(-c3ccccc3)cc(=O)oc2c1C(CCN1CCN(c2ccccc2)CC1)c1ccc(N(C)C)cc1 (centres undefined),active: 14.6 µM,–
C(=C\c1ccccc1)/CN1CCN(C(CCc2ccccc2)c2nnnn2C2CCCCC2)CC1 (centres undefined),"inconclusive [inhibitor, single point]",–
CC(C)CNS(=O)(=O)c1ccc(CCC(=O)N2CCN(c3ccccc3)CC2)cc1,–,inconclusive: -22.1% [inhibitor]
O=C(c1ccccc1)N1N=C(C(F)(F)F)CC1(O)c1ccc(F)cc1 (centres undefined),"inconclusive [inhibitor, single point]",–
Cc1ccc(C)c(S(=O)(=O)N2CCN(C(=O)CCc3nc4ccccc4c(=O)[nH]3)CC2)c1,active: 20.6 µM,–
CCCCCSc1nnc2c(n1)OC(CC)Nc1ccc(Br)cc1-2 (centres undefined),"inconclusive [inhibitor, single point]",–
O=C(C1CCN(c2nnc(-n3cccc3)s2)CC1)N1CCCCC1,inactive,–
COc1ccc(NC(=O)Nc2cccc(OCc3cc(=O)n4cccc(C)c4n3)c2)c(OC)c1,–,inconclusive: -35.2% [inhibitor]
Cc1cc(C)cc(NC(=S)N2CCN(S(C)(=O)=O)CC2)c1,inactive,–
COCCn1c(C)cc(O)c(C(c2ccc(Cl)cc2)N2CCN(c3ccccc3)CC2)c1=O (centres undefined),inactive,–
COc1ccc(N2CC(C(=O)Nc3ccc(S(=O)(=O)N4CCCCC4)cc3)CC2=O)cc1 (centres undefined),"inconclusive [inhibitor, single point]",–
COc1ccc(CNC(=O)Cn2nc([N+](=O)[O-])c(Br)c2C)cc1OC,inactive,–
O=S(=O)(c1ccc2[nH]c3c(c2c1)CCCC3)N1CCN(c2cccc(C(F)(F)F)c2)CC1,"inconclusive [inhibitor, single point]",–
COC(=O)c1ccccc1N(C)S(=O)(=O)c1cc2c3c(c1)CCC(=O)N3CCC2,"inconclusive [inhibitor, single point]",–
COCC(=O)N1CCC2(CC1)CCN(c1cccc(-c3ccccc3)c1)CC2,"inconclusive [inhibitor, single point]",–
CCn1c(=O)cc(SCC(=O)NCCc2cccc(C)c2)c2ccccc21,"inconclusive [inhibitor, partial curve]",–
O=C1C2C3C=CC(C4CC34)C2C(=O)N1/N=C/c1ccc(-c2ccc([N+](=O)[O-])cc2)o1 (centres undefined),"inconclusive [inhibitor, single point]",–

SMILES,Potency,"activity change, negative = growth inhibition"
COc1ccc(F)c(CN2CCOc3ccc(CN4CCC(Oc5cccnc5)CC4)cc3C2)c1,–,inactive: -7.14% [at 9.04 µM]
CCc1ccc(NC(=O)Cc2csc(COc3cccc(C)c3)n2)cc1,"inconclusive [inhibitor, single point]",–
C=CCC1(CC=C)CCCN1Cc1nc(COc2ccccc2)no1,"inconclusive [inhibitor, single point]",–
COC(=O)CSc1nc(N)c(NC(=O)c2ccc(OC)c(OC)c2)c(=O)[nH]1,inactive,–
O=C1C(Cl)=C(N2CCOCC2)C(=O)N1c1ccc(Br)cc1,"inconclusive [inhibitor, single point]",–
Cc1nc2ccc(S(=O)(=O)NC(C(=O)N3CCN(c4ccc(Cl)cc4)CC3)C(C)C)cc2s1 (centres undefined),"inconclusive [inhibitor, single point]",–
Cc1cc(C)cc(Nc2nc3ccccc3n3cnnc23)c1,"inconclusive [inhibitor, single point]",–
S=c1nc(Cc2ccc(Cl)cc2)[nH]c2ccccc12,inactive,–
C=C1CC[C@@]23CC[C@]4(C)[C@@](OC2=O)([C@@H]3C1)[C@H]1O[C@H]1C1[C@@]2(C)CC[C@H](O)C(C)(C)C2CC[C@]14C (some centres undefined),inactive,–
COc1ccc(C(=O)N(C)Cc2ccc(C)o2)cc1OC1CCN(C(C)C)CC1,inactive,–
Cc1nn(-c2ccccc2)c(C)c1/C=N/NC(=O)c1cnccn1,inactive,–
CC(=O)c1ccc(N2CCN(c3nc4c(S(=O)(=O)c5ccc(C)c(C)c5)nnn4c4ccc(Cl)cc34)CC2)cc1,inactive,–
Cc1cc(NC(=O)c2ccc(-c3ccccc3F)o2)no1,"inconclusive [inhibitor, single point]",–
Cc1ccc(S(=O)(=O)NCC(=O)OCC(=O)NCc2ccco2)cc1,inactive,–
COc1ccc(-c2cc(C(=O)NCc3ccc(F)cc3)no2)cc1,inactive,–
CCOc1cc(O)c(-c2[nH]ncc2-c2nc(C)cs2)cc1CC,active: 23.1 µM,–
COc1ccc(C(=O)NCC(c2ccc(N(C)C)cc2)N2CCCC2)cc1 (centres undefined),"inconclusive [inhibitor, single point]",–
N#Cc1nc(-c2cccc(Cl)c2)oc1N1CCC(C(N)=O)CC1,inactive,–
COc1ccc(C(=O)NC(=S)Nc2ccc3oc(=O)ccc3c2)cc1[N+](=O)[O-],"inconclusive [inhibitor, single point]",–
O=C(COc1coc(CN2CCN(c3ccccc3F)CC2)cc1=O)NC1CCCCC1,"inconclusive [inhibitor, single point]",–
O=C(CCCn1c(=O)c2ccccc2n(CC(=O)Nc2cccc(Cl)c2)c1=O)NCc1ccc2c(c1)OCO2,"inconclusive [inhibitor, single point]",–
CCOc1ccc2oc(=O)cc(CN3CCN(Cc4ccc(F)cc4)CC3)c2c1,active: 16.4 µM,–
CC(C)(C)n1ncc(Oc2ccccc2[N+](=O)[O-])c(Cl)c1=O,"inconclusive [inhibitor, single point]",–
